# Results taken from PubChem BioAssay AID1508623 (National Center for Advancing Translational Sciences (NCATS), 2021).
# Among all 48,000 compounds or so, about 450 (0.94%) were called active. Not shown: some 19% with an inconclusive outcome. Calls follow the shape of the dose curve; as a rule, active = well fitted inhibition curve with a large enough effect; inconclusive = small, poorly fitted or top-dose-only effect; inactive = no such curve, though single readings can be large or run the other way. The list shows a part of the results.
# Experiment: Primary qHTS for Identification of Small Molecule Inhibitors of Huntingtin Promoter Activity; also: nearly all actives have a fitted effect of over 50% in size
# Settings: HEK293 HTT promoter firefly luciferase reporter (activity 0% = vehicle and -100% = no light), 24 h; series mostly up to 57.5 µM; activity change, negative = inhibition: at the top concentration
# In short: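 Quantitative HTS used concentration series of up to 57.5 uM final on HEK293 luciferase reporter cells, 24 h at 37 degrees C. Readout was Dual-Glo firefly luminescence.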
row,SMILES,"activity change, negative = inhibition"
1,O=C(CSc1nc2ccccc2nc1Cc1ccc(Cl)cc1)N1CCN(c2ccccc2)CC1,inactive: -1.59%
2,Cc1ccc(-n2ncc(C(=O)NCc3ccco3)c2C2CCN(C(=O)OC(C)(C)C)CC2)cc1C,inactive: -27.9%
3,Cc1c(C(=O)Nc2cc(F)ccc2F)sc2nc(-c3ccc(F)cc3)cn12,inactive: -13.2%
4,Cc1cccc(C)c1NC(=O)Cn1nnc(S(=O)(=O)c2ccccc2)c1N,inactive: -8.54%
5,Cc1ccccc1-c1noc(-c2ccccc2OCC(=O)Nc2cccc([N+](=O)[O-])c2)n1,inactive: -10.8%
6,COc1ccc2c3c1OC1C[C@@H](O)C=C[C@@]31CCN(C)C2 (stereo partly specified),inactive: -0.836%
7,N#Cc1c(-c2ccccc2)cc(-c2ccccc2)nc1SCC(O)CS(=O)(=O)Cc1ccc(Cl)cc1 (stereo unspecified),inactive: -35.8%
8,CCn1cc(/C=C(\NC(=O)c2cc(OC)c(OC)c(OC)c2)C(=O)NCCCn2ccnc2)c2ccccc21,inactive: -2.2%
9,Cc1cc(NC(=O)Cc2ccccc2)cc(-c2nc3ccccc3o2)c1O,inactive: -6.48%
10,CCOC(=O)c1cc2c(=O)n3ccccc3nc2n(C(C)C)c1=NC(=O)C(C)(C)Oc1ccc(Cl)cc1,inactive: -5.31%
11,Cc1c(C(=O)NCCN(C)C)oc2c1-c1nn(Cc3cccc(Cl)c3)cc1CC2,inactive: 0.0754%
12,CN(C)c1ccc(Nc2ncnc3c2c(-c2ccccc2)cn3-c2cccc(Cl)c2)cc1,inactive: -36.6%
13,Cc1cccc(S(=O)(=O)c2cn(Cc3ccccc3)c3cc(N4CCCCC4)c(F)cc3c2=O)c1,inactive: -13.4%
14,COC(=O)c1ccccc1NS(=O)(=O)c1cc2c(cc1C)N(C)CCO2,inactive: -1.22%
15,CCN(CC)C(=O)c1c(-c2ccccc2)c(-c2ccccc2)nn(CC)c1=O,inactive: 0.436%
16,COc1ccccc1N1CCN(C(=O)CN2C(=O)COc3ccc(S(=O)(=O)N4CCOCC4)cc32)CC1,inactive: -6.86%
17,COc1ccc(CCC(=O)NC2CC(=O)N(c3ccc(F)cc3)C2)cc1 (stereo unspecified),inactive: -2.56%
18,CCN(Cc1nc(-c2ccc(OC)c(OC)c2)no1)S(=O)(=O)c1ccc(OC)cc1,inactive: 0%
19,COc1ccc(-c2nc3sc(CCNC(=O)c4ccc(Br)o4)c(C)n3n2)cc1,inactive: 1.69%
20,CN1[C@@H]2CC(OC(=O)[C@H](CO)c3ccccc3)C[C@H]1[C@@H]1O[C@@H]12 (stereo partly specified),inactive: -5.36%
21,O=C(CSc1nc(=O)n(Cc2ccccn2)c2c1CCC2)Nc1ccccc1,inactive: -27.9%

row,SMILES,"activity change, negative = inhibition"
1,CSc1ccccc1NC(=O)CCS(=O)(=O)c1nc(-c2ccc3c(c2)OCO3)cc(C(F)(F)F)n1,inactive: 10.1%
2,CC(C)(C)OC(=O)N1CCC(c2c(C(=O)NC3CCCCC3)cnn2-c2ccc(F)cc2F)CC1,inactive: -6.16%
3,COc1cc(CNC(=O)c2cnc(SC)nc2-c2ccccc2)cc(OC)c1OC,inactive: -1.65%
4,Cc1ccc(S(=O)(=O)C(CNS(=O)(=O)c2cc(F)ccc2F)c2cccs2)cc1 (stereo unspecified),inactive: -30.5%
5,O=C(O)c1ccccc1C(=O)Nc1ccc(Br)c2cccnc12,inactive: 12.3%
6,Cc1ccc(NC(=O)C2CCN(S(=O)(=O)c3cccc4nsnc34)CC2)cc1F,inactive: -19.4%
7,CCCNC(=O)c1ccc2c(c1)nc1n2CCCCC1,inactive: 56.5%
8,COc1cccc(CNC(=O)Cn2ncn3nc(-c4cccs4)cc3c2=O)c1,inactive: -13%
9,COc1ccc(NC(=O)C(=O)NCCc2csc3nc(-c4ccccc4F)nn23)cc1OC,inactive: 6.2%
10,CC(=O)c1ccc(NS(=O)(=O)c2ccc3c(c2)NC(=O)CCS3)cc1,inactive: -10.5%
11,CCn1cc2nc(SCc3ccccc3Cl)n(Cc3ccc(OC)cc3)c(=O)c2n1,inactive: -24.9%
12,COc1cccc(CNC(=O)c2ccc(-c3nc(CSc4ccccc4)c(C)o3)cc2)c1,inactive: -11.7%
13,CC(=O)Nc1ccccc1-c1nc2ccccc2n(C(C)C(=O)Nc2ccccc2C(F)(F)F)c1=O (stereo unspecified),inactive: -18.2%
14,COc1ccc(-c2c(C)c3ccc(O)c(CN4CCC(C)CC4)c3oc2=O)cc1OC,inactive: -18.3%
15,CN1CCN(c2ncnc3c2cnn3-c2cccc(Cl)c2)CC1,inactive: 18.8%
16,COc1cc(OC)c(OC)cc1/C=C/c1nc2cc3ccccc3cc2c(=O)n1-c1ccccc1Br,inactive: -21.6%
17,Cc1ccc(CNC(=O)c2cc(=O)c3cc(C)ccc3o2)cc1,inactive: -18.9% [at 11.5 µM]
18,COc1cc2c(c(OC)c1)C(c1cccc(F)c1F)CC(=O)N2 (stereo unspecified),inactive: -16.2%
19,CCOC(=O)c1c(NC(=O)c2cc(=O)c3cc(C)ccc3o2)sc2c1CCCC2,inactive: 6.42% [at 11.5 µM]
20,Cc1ccc(Cn2c(C(=O)O)c(CNCc3ccc(C)o3)c3ccc(C)cc32)cc1,inactive: -23.6%
21,NC(=O)c1cnccn1,inactive

row,SMILES,"activity change, negative = inhibition"
1,CC(C)Cn1cc(NC(=O)NCc2cccc(Cl)c2)c2ccccc2c1=O,inactive: -18.8%
2,COc1ccc(NC(=O)c2cccc(N3CCCS3(=O)=O)c2)c(OC)c1,inactive: 6.87%
3,O=C(NCCC1=CCCCC1)c1ccc2c(c1)sc1nc(-c3ccc(F)cc3)cn12,inactive: 8.11%
4,CCN(CC)c1ccc(NC(=O)CN2CCN(CC(=O)Nc3ccc(Cl)cc3)CC2)cc1,inactive: -28.4%
5,Cc1ccc2oc(C(=O)Nc3sc4c(c3C(=O)NCC3CCCO3)CCC4)cc(=O)c2c1 (stereo unspecified),inactive: 6.42% [at 11.5 µM]
6,COCCNC(=O)Cn1nc(-c2ccccc2)c2ccccc2c1=O,inactive: -18.8%
7,COc1cc(OC)c(C2CC(=O)Nc3ccc4ccccc4c32)cc1OC (stereo unspecified),inactive: -8.55%
8,Nc1nc(N)c(N=O)c(OCC2CCCCC2)n1,inactive: -14.9%
9,COC(=O)c1ccccc1NC(=O)c1nc(-c2ccc(C)cc2)n2c1CCCCC2,inactive: -15.7%
10,CC(NC(=O)c1cc2c(=O)n3ccccc3nc2n(C(C)C)c1=N)c1ccccc1 (stereo unspecified),inactive: -20.8%
11,CC(NC(=O)Cn1c(=O)oc2cc(S(=O)(=O)N3CCCCCC3)ccc21)c1ccccc1 (stereo unspecified),inactive: -13.8%
12,Cc1cccc(OC(=O)CSc2nnc(-c3ccc4c(c3)OCO4)o2)c1C,inactive: -11.2%
13,Cc1ccc(C2=NN(CC(=O)NCCc3ccccc3)C(=O)CC2)cc1,inactive: 11.9%
14,COc1cccc(Cn2c(=O)n(CC3CCC(C(=O)NC(C)C)CC3)c(=O)c3sccc32)c1 (stereo unspecified),inactive: 5.03%
15,Cc1cn(C)c(CC(=O)NCc2ccc(Cl)cc2)c1C(=O)O,inactive: -5.94%
16,COc1cc(NC(=O)CN2C(=O)CCc3cc(Br)ccc32)cc(OC)c1OC,inactive: -17.8%
17,Cc1cccc(-c2noc(-c3cc(C(C)C)[nH]n3)n2)c1,inactive: 25.6%
18,CCOc1ccc(C2c3c(-c4cc(C)ccc4O)n[nH]c3C(=O)N2Cc2cccnc2)cc1OCC (stereo unspecified),inactive: -26.5%
19,COc1ccccc1NC(=O)CC(C)n1nc(C)cc1C (stereo unspecified),inactive: 11%
